42 compounds from ChEMBL document CHEMBL4888484, “Replenishing the malaria drug discovery pipeline: Screening and hit evaluation of the MMV Hit Generation Library 1 (HGL1) against asexual blood stage Plasmodium falciparum ,using a nano luciferase reporter read-out” (2022) can be followed below.

One may read the % Inhibition as the drop in the measured response relative to a control, in per cent.

About 540 (0.36%) of roughly 150,000 compounds showed an effect of 50% or more. The list shows a part of the results.

The subject of this assay is Plasmodium falciparum. Put plainly: Primary screen in NF54 nanoGlo assay, in single point, at 2uM, 72h; a lower Z score goes with more inhibition. In kind it is functional, Erythrocyte. Particulars: timepoint 72 hour.
With `CCOC(=O)c1cc(NC(=O)c2ccc3[nH]cnc3c2)cn1C`, the “% Inhibition” value amounted to 31% and the Z score was -3.48.
The matching figures for `O=C(c1ccc[nH]1)N1C[C@H]2CC[C@@H](C1)N(Cc1ccccc1)C2=O`: -16% and 3.04.
The matching figures for `CN(C)C(=O)N1C[C@H]2CC[C@@H](C1)N(C(=O)c1nc3ccc(F)cc3[nH]1)C2`: -9% and 1.1.
For the compound `O=C(O)c1ccc(NCC[C@H]2CCCO2)cc1`, the “% Inhibition” value was -4% and the Z score was found to be 0.55.
Take `CCCN(Cc1nc(C)c(Cc2cccc(C)c2)c(=O)[nH]1)C(=O)NC(C)(C)C`: the “% Inhibition” value was -1% and the Z score was found to be 0.17.
The matching figures for `CN(C)C(=O)N1CCC(c2nc(CC(N)=O)nn2-c2ccncc2)CC1`: -9% and 1.19.
The matching figures for `CCc1nc(C)nc(N2CCN(C(=O)[C@H]3CCOC3)CC2)c1Cc1ccc(C)cc1`: -1% and 0.15.
As for `c1ccc2c(c1)CCN(c1ncnc3c1CCNCC3)C2`, the “% Inhibition” value was -5% and the Z score amounted to 0.82.
For `Cc1c(C(=O)N2CC[C@H](N(C)C)C2)sc2ncnc(NCc3ccc4c(c3)OCO4)c12`, the “% Inhibition” value is recorded as -4% and the Z score worked out at 0.54.
With `COCCC1(C(=O)Nc2ccc(O[C@H]3CCOC3)cc2)CCC1`, the “% Inhibition” value was -7% and the Z score is reported as 1.14.
Consider `CC(C)CS(=O)(=O)CCNC(=O)Nc1cncc(F)c1`, for which the “% Inhibition” value is reported as 0% and the Z score was -0.04.
As for `O=C(Cc1ccccc1F)NC1(C(=O)O)CCC1`, the “% Inhibition” value is reported as 1% and the Z score is -0.29.
Regarding `O=C(N1CC[C@H](CO)C1)N(c1ccccc1)c1ccccc1`, the “% Inhibition” value is -9% and the Z score amounted to 0.86.
`CCCc1nc(C)cc(N2CCC(C[C@H]3CCCCO3)(C(=O)O)CC2)n1`: the “% Inhibition” value is -17% and the Z score is listed as 2.94.
The matching figures for `Cc1cccc(OCCN2CCc3c(ncn3C)C2)c1`: -27% and 5.15.
With `Cc1nn(C)cc1S(=O)(=O)N[C@@H](C)c1ncnn1C`, the “% Inhibition” value is recorded as -19% and the Z score turned out to be 3.29.
As to `c1ccc(-n2nc(C3CC3)nc2Cc2n[nH]c3ccccc23)nc1`, the “% Inhibition” value was 3% and the Z score is -0.58.
The matching figures for `CC(C)[C@H]1c2ccccc2CCN1C(=O)c1cnc[nH]1`: -3% and 0.26.
For `Cc1nc2ccc(NC(=O)c3ccsc3)cc2s1`, the “% Inhibition” value was -10% and the Z score is on record as 0.98.
With `CN(C)c1cccc(C(=O)N2CCC3(CCC(=O)N(C4CCCC4)C3)CC2)c1`, the “% Inhibition” value is -10% and the Z score turned out to be 0.91.
Turning to `CCO[C@@H](C)c1nccn1Cc1nnc2n1CCCCC2`, the “% Inhibition” value is -10% and the Z score worked out at 1.7.
As for `O=C(c1nnn2c1CO[C@H](c1ccccc1)C2)N1CCCC1`, the “% Inhibition” value is on record as -16% and the Z score amounted to 1.84.
Take `COc1ccc(-c2noc(N3CCN(c4cccc(C(F)(F)F)c4)CC3)n2)cc1OC`: the “% Inhibition” value was determined as 1% and the Z score was -0.22.
The matching figures for `C[C@@H](CC(=O)N1CCCCCC1)Nc1cccc(-c2ncco2)c1`: -22% and 3.18.
`COc1ccccc1[C@@H](O)CNc1cncc(Br)c1`: the “% Inhibition” value is listed as -10% and the Z score came to 1.1.
Regarding `CC(C)C[C@@H]1NC2(CCN(S(=O)(=O)c3cccc(Cl)c3)CC2)N(Cc2cccc(C(F)(F)F)c2)C1=O`, the “% Inhibition” value is reported as -10% and the Z score is recorded as 1.72.
The matching figures for `O=C(Nc1cccc2cccnc12)c1sc2ccccc2c1Cl`: 0% and 0.05.
For `Cc1nc2c(s1)[C@@H](N(C)CC(=O)Nc1nncs1)CCC2`, the “% Inhibition” value was 5% and the Z score was -0.67.
For the compound `Cc1c(-c2cc(C(=O)N3CC[C@H]3c3ccc(F)cc3)n[nH]2)cnn1C`, the “% Inhibition” value is recorded as -4% and the Z score is on record as 0.53.
For `O=C(O)Cc1cccc(NC(=O)CC2(c3ccccc3)CC2)c1`, the “% Inhibition” value is -2% and the Z score amounted to 0.16.
Consider `COc1cccc(CNc2nnc([C@@H]3CCCO3)o2)n1`, for which the “% Inhibition” value is on record as -8% and the Z score stood at 1.04.
Regarding `Cc1nc([C@@H]2CCCN2c2ccnc(Cc3ccccc3)n2)[nH]c1C`, the “% Inhibition” value is reported as -5% and the Z score amounted to 0.8.
The matching figures for `Cc1ccc(N2CCCC2)c(C(=O)N2CCOC[C@@H](C)C2)c1`: -3% and 0.5.
For `CC(C)NC(=O)CNc1ccncc1Br`, the “% Inhibition” value is recorded as -7% and the Z score was found to be 0.96.
As to `Cc1occc1-c1nnc(NCc2cccn2C)o1`, the “% Inhibition” value is given as -2% and the Z score worked out at 0.22.
With `Cc1ccc(-c2nn(CC(=O)N(C)Cn3ccc(C)n3)c(-c3ccc(C)cc3)c2C)cc1`, the “% Inhibition” value stood at 28% and the Z score is given as -3.16.
The matching figures for `N#Cc1c(N)c(C(=O)NCc2ccccc2)c2n1CCC2`: -4% and 0.69.
On to `COCCCN(Cc1csc(COc2cccc(C)c2)n1)C(=O)C1CCCC1`, for which the “% Inhibition” value is recorded as -9% and the Z score is 0.96.
For `O=C(c1cnco1)N1CCn2nc([C@H](O)c3ccccc3)cc2C1`, the “% Inhibition” value is listed as 1% and the Z score is -0.24.
With `Cc1ccc(NC2(c3nnnn3C(c3ccccc3)c3ccccc3)CCCCC2)cc1`, the “% Inhibition” value worked out at 25% and the Z score is given as -3.89.
`CCCC[C@H](C)C(=O)NCc1cnc(COC)nc1N`: the “% Inhibition” value is reported as -4% and the Z score is on record as 0.5.
The matching figures for `Cc1ccc(CN(CCN(C)C)C(=O)c2cnon2)s1`: -6% and 1.17.
